This note sets out measurements from PubChem BioAssay AID1963426 (Molecular Pharmacology Branch, DTP, NCI, 2024).

Not every entry of the source has a single result; some have several. The list is limited to them. An entry can have further records. The values listed for one entry repeat one measurement (runs, samples, wells, individuals or studies). Additions like (4×) stand for listed records that agree. A date in brackets names the month of the test.

The subject of this experiment is 186277-243-T-J2-PDC complex spheroid growth, % test/control. Nature of the experiment: Anticancer human tumor 186277-243-T-J2-PDC patient-derived colon adenocarcinoma cell line growth inhibition [Asc]. To be noted: for viability, T/C: stronger effect = lower value. The procedure:
Multicellular complex tumor spheroid response to apoptosis pathway targeting inhibitors Alrizomadlin, Pelcitoclax, and Dasminapant in combination with a variety of drugs and investigational agents in selected tumor cell lines
The MDM2 inhibitor alrizomadlin, the Bcl-2/Bcl-xL inhibitor pelcitoclax, and the IAPs inhibitor dasminapant were evaluated both individually and in combination with standard of care and investigational anticancer small molecules within a complex spheroid model of solid tumors. . Complex spheroids include a stromal component modeled by human endothelial cells (HUVEC) and fibroblasts modeled by human mesenchymal stem cells (MSCs). The concentration ranges selected for each drug and investigational agent were based upon clinically achievable concentrations if the clinical Cmax of the agent was known.
Compounds. The drugs and investigational agents: alrizomadlin (APG-115; NSC831270), pelcitoclax (APG-1252; NSC835773), dasminapant (APG-1387;NSC834197), TAK-243 (NSC785004), copanlisib (NSC809693), olaparib (NSC753686), talazoparib (NSC767125), cobimetinib (NSC 768068), eltanexor (KPT-8602, NSC 794443), abemaciclib (NSC 768073), sotorasib (NSC818433), adagrasib (NSC 831453), MRTX-1133 (NSC 836407), Iadademestat (ORY1001, NSC 806812), and RMC-4630 (NSC839698), were obtained from the NCI Developmental Therapeutics Program Chemical Repository. The FDA-approved anticancer drug set is available from the Developmental Therapeutics Program at https://dtp.cancer.gov/organization/dscb/obtaining/available plates.htm. […] The stock solutions were prepared in dimethyl sulfoxide (DMSO, Sigma-Aldrich, St. Louis, MO, cat. D2650) at 800-fold the tested concentration and stored at -70 degrees C prior to their use. All drugs and investigational agents were tested over a range starting from a high concentration at or near the clinical Cmax and decreasing in half-log increments. If the clinical Cmax for an agent had not been determined, the highest concentration tested was 10 microM.
The patient-derived cancer (PDC) cell lines include five colon adenocarcinomas: 186277-243-T-J2-PDC, 616215-338-R-J1-PDC, 439559-082-T-J2-PDC, 463943-066-T-J2-PDC, and 519858-162-T-J1-PDC; three pancreatic carcinomas: 323965-272-R-J2-PDC, 521955-158-R6-J3-PDC, and 521955-158-R2-J5-PDC; two uterine sarcomas: 327498-152-R-J2-PDC and 993429-296-R-J1-PDC; two rhabdomyosarcomas: 755483-174-R-J1-PDC and 772245-204-R-J1-PDC; two soft tissue sarcomas: 126254-015-R-J1-PDC and 494315-158-R-J1-PDC; two malignant fibrous histiocytomas: 317291-083-R-J1-PDC and 596521-263-R-J1-PDC; two breast carcinomas: 171881-019-R-J1-PDC and 885512-296-R-J2-PDC; and one ovarian carcinoma: 6556581-035-R-J-PDC were obtained from the NCI PDMR, (https://pdmr.cancer.gov). The established cell lines HSSY-2 synovial sarcoma (RRID:CVCL 8719), SYO-1 synovial sarcoma (RRID:CVCL_7146), MPNST malignant peripheral neural sheath tumor were obtained from the Sloan Kettering Institute. The following established cell lines were purchased from the American Type Culture Collection (ATCC, Manassas, VA), Sor the received from the NCI repository:, PANC-1 pancreatic carcinoma (CRL-1469, RRID:CVCL_0480), OVCAR-5 ovarian carcinoma (RRID:CVCL_1628), OVCAR-8 ovarian carcinoma (RRID:CVCL_1629), , MCF-7 breast carcinoma (CRL-12584, RRID:CVCL_0031), MDA-MB-231 breast carcinoma (CRL-12532, RRID:CVCL_0062), NCI-H1876 small cell lung carcinoma (CRL-5902, RRID:CVCL_1503), NCI-H510A small cell lung carcinoma (HTB-184, RRID:CVCL_1565), NCI-H1417 (CRL-5869, RRID:CVCL_1469), and NCI-H196 small cell lung carcinoma (CRL-5823, RRID:CVCL_1509). Dr. Peter Houghton (Greehey Children's Cancer Research Institute, University of Texas Health Science Center, San Antonio, TX) provided Rh-18 rhabdomyosarcoma (RRID:CVCL_1659). Pooled donor human umbilical vein endothelial cells (HUVEC, Lonza, cat. CC-2519) and human mesenchymal stem cells (hMSC, Lonza, cat. PT-2501) were purchased from Lonza (Walkersville, MD).
Cell Culture. […]
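Further: spheroids exposed to agents for 7 days.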
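Wherever viability, T/C is given: 100% = DMSO vehicle control wells.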

`C=C(F)C(=O)N1CCN(c2nc(OCC3CCCN3C)nc3c2CCN(c2cccc4cccc(Cl)c24)C3)CC1CC#N` (stereo unspecified): for the setting “compound alone 10 µM”, the viability, T/C is 3.94%, 5.48% [2022-09] and 46.3% [2022-10].
As usually defined, the IC50 is the midpoint of a concentration-inhibition curve. Turning to `CCN1C(C(=O)NC23CCC(C(=O)O)(CC2)CC3)C(c2cccc(Cl)c2F)C2(C(=O)Nc3cc(Cl)ccc32)C12CCCCC2` (stereo unspecified), the viability, T/C by setting is: (compound alone 0.03 µM) 119 (3×), 101 (2×), 120, 109, 95, 105 (2×), 125, 107, 108, 121% [2022-09] and 123% [2022-10]; (compound alone 0.0949 µM) 99.3, 102 (2×), 100, 82, 83.9, 80.2, 93.3, 91.8, 90.4, 95.1, 95, 82.1, 84.9% [2022-09] and 140% [2022-10]; (compound alone 0.3 µM) 74.8, 63.1, 81.8, 70, 76.9, 73.7, 78, 75.3, 80.2, 72.3, 79.2, 57.6, 71.8, 90.2% [2022-09] and 130% [2022-10]; (compound alone 0.949 µM) 50.7, 45.4, 51.1, 51.2, 51.6, 55.5, 57.3, 58.8, 55.8, 56.1, 56.6, 38.1, 50.2, 72% [2022-09] and 89.5% [2022-10]; (compound alone 3 µM) 30.5, 28.3, 31, 26.6, 31.9 (2×), 29.2, 30, 36.8, 37.9, 35.6, 24.1, 30.4, 34.9% [2022-09] and 52.1% [2022-10]. Further, the half-maximal inhibitory concentration (IC50) (compound alone, run of 09/27/2022) is 990 nM, 616 nM, 1.1 µM, 856 nM, 1.16 µM, 1.27 µM, 1.47 µM, 1.4 µM, 1.19 µM, 1.38 µM, 475 nM, 860 nM.
Regarding `Cc1c(S(C)(=O)=O)c(-c2cc(F)cc(N3CCN(c4ccc(NS(=O)(=O)c5ccc(NC(CCN6CCC(C(=O)OCCCP(=O)(O)O)CC6)CSc6ccccc6)c(S(=O)(=O)C(F)(F)F)c5)cc4)CC3)c2)c(-c2ccc(Cl)cc2)n1C(C)C` (stereo unspecified), the viability, T/C is 86.2, 95, 89.7, 84.1, 110, 111 (2×), 98.7, 84, 97.8 (2×), 109, 103, 104% (compound alone 0.1 µM); 92.2, 103, 87.5, 79.9, 92.8, 95.3, 85.5, 84.7, 100, 95.2, 94.8, 102, 105, 109% (compound alone 0.316 µM); 93.2, 95.6, 87.6, 94.3, 104 (2×), 97, 91.7, 120, 111, 106, 94.1, 99.3, 105% (compound alone 1 µM); 83.9, 96.7, 97.9, 93.4, 96.4, 87.8, 93.2, 100, 102 (2×), 109 (2×), 98.2, 106% (compound alone 3.16 µM); 90.5, 87.7, 83.9, 82.4, 94.4, 88, 92.9, 92.2, 112, 104 (2×), 105, 96.1, 103% (compound alone 10 µM).
`CNC(C)C(=O)NC1CN(S(=O)(=O)c2cccc(S(=O)(=O)N3CCC4CCC(C(=O)NC(c5ccccc5)c5ccccc5)N4C(=O)C(NC(=O)C(C)NC)C3)c2)CCC2CCC(C(=O)NC(c3ccccc3)c3ccccc3)N2C1=O` (stereo unspecified): the viability, T/C reads like this: (compound alone 0.01 µM) 89.7%, 108% [2022-09] and 86.3, 93.3, 94.9 (2×), 95.7, 98.6, 101, 114, 108, 104, 103, 88.4, 94.2% [2022-10]; (compound alone 0.0316 µM) 90.5%, 85.6% [2022-09] and 90, 104 (2×), 115, 101 (3×), 102, 111, 99.4, 100, 106, 96.4% [2022-10]; (compound alone 0.316 µM) 85.5%, 106% [2022-09] and 102, 115, 104, 100, 112 (2×), 103 (2×), 114, 122, 98.9, 97, 96% [2022-10]; (compound alone 1 µM) 82.3%, 95.9% [2022-09] and 96.5, 98.3, 98.2, 97.3, 108, 107, 124, 101, 117, 106, 98.5, 93.9, 105% [2022-10].
